In all, about 46,000 compounds went through this assay and about 60 (0.1%) were called active. Another 3% or so got no clear call; they are omitted. Calls come from the whole dose curve; as a rule, active = well fitted inhibition curve with a large enough effect; inconclusive = small, poorly fitted or top-dose-only effect; inactive = no such curve, though single readings can be large or run the other way. The list shows a part of the results.
Assay: Primary qHTS assay for Inhibitors of ovarian cancer metastasis using an organotypic tumor microenvironment (TME) model.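 For activity change, negative = inhibition: plate controls were DMSO wells for no effect and tomatine positive control wells for full effect.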 Note: nearly all actives have a fitted effect of over 65% in size.
Settings: SKOV3ip1-GFP adhesion/invasion on 3D omental model, fluorescence; series mostly up to 45.8 µM; activity change, negative = inhibition: at the top concentration
Procedure, shortened: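 A 3D layer of primary human omental fibroblasts, mesothelial cells, fibronectin and collagen I, grown 48 hr, received SKOV3ip1-GFP cells in serum-free medium plus compounds at 0.36-46 umol/L. After 2 hr RT and 16 hr 37 C, fixed adherent GFP cells were counted; normalized to DMSO and tomatine.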

Activity change, negative = inhibition, inactive:
COc1ccc(Cc2nc3ccc(C(=O)NCc4ccccc4C)cc3o2)cc1 9.89%, COc1ccc(NC(=O)[C@H]2O[C@@H]3OC(C)(C)O[C@@H]3[C@H]3OC(C)(C)O[C@H]32)c(OC)c1 7.2%, CCOC(=O)C1CCCN(c2nc3c(S(=O)(=O)c4ccc(CC)cc4)nnn3c3ccsc23)C1 (stereo not drawn) -17.4%, Cc1c(C(=O)NCc2ccc(F)cc2)oc2ccc(S(=O)(=O)N3CCCCC3)cc12 5.55%, CN(C)c1ccc(/C=C/c2nc(-c3ccccc3O)n(-c3ccccc3)n2)cc1 2.62%, Cc1ccc2nc(-c3cccs3)c(Nc3c(C)cccc3C)n2c1 -5.15%, CC(C)CCNC(=O)CN1C(=O)CSc2ccc(S(=O)(=O)N3CCC(C)CC3)cc21 -7.79%, C=C1C(=CC=C2CCC[C@]3(C)[C@@H]([C@H](C)C=C[C@H](C)C(C)C)CC[C@@H]23)C[C@@H](O)C[C@@H]1O -20.6%, CCc1cccc(NC(=O)CCc2nc3cccnc3n2Cc2ccc(OC)cc2)c1 4.17%, CCOC(=O)Cc1ccc(NC(=O)Nc2c[nH]c(=O)[nH]c2=O)cc1 -17.2%, Cn1c(=O)[nH]c(=O)c2c1nc(N1CCOCC1)n2Cc1ccccc1 -0.588%, O=C(NCCS(=O)(=O)N1CCN(c2ccc(F)cc2)CC1)C(c1ccccc1)c1ccccc1 -13.9%, CC(=O)c1cccc(NC(=O)CSc2nnc3ccc(-c4ccc(Br)cc4)nn23)c1 -1.23%, CCOC(=O)C(CC)n1nnc2sc(-c3ccccc3)cc2c1=O (stereo not drawn) 1.27%, Cn1c2ccccc2c2cnn(CC(=O)NCCCN3CCCCC3)c(=O)c21 10.3%, CCc1ccccc1NC(=O)CSc1nncn2c1cc1oc(C)cc12 4.99%, Fc1ccc(C(c2nnc(-c3ccccc3)o2)N2CCN(c3cccc(Cl)c3)CC2)cc1 (stereo not drawn) -0.209%, Cc1ccc(NC(=O)Cn2c(=O)n(Cc3ccccc3)c(=O)c3sc4ccccc4c32)cc1 -3.53%, Cc1ccc(-n2c(=O)c3sc4ccccc4c3n(CC(=O)NC3CCCC3)c2=O)cc1C -0.308%, Cc1ccc(CNC(=O)CSc2nc3c(sc4ccccc43)c(=O)n2CCCOC(C)C)cc1 -0.757%, Cc1ccc2oc(=O)c3cnn(CC(=O)N4CCN(c5ccc(F)cc5)CC4)c3c2c1 -0.176%, Cc1ccc(Nc2c(-c3c[nH]c4ccccc34)nc3ccccn23)cc1 3.88%, CCOc1ccc(CNC(=O)c2ccc3c(c2)c(C)c(C)n3Cc2ccccc2)cc1OC -2.59%, CCOc1ccc(NC(=O)c2c(Nc3ccccc3C)sc(C(=O)c3ccccc3)c2N)cc1 -5.41%, O=C(CN1C(=O)C2(SCC(=O)N2c2cccc(Cl)c2)c2ccccc21)NCCc1ccccc1 (stereo not drawn) 2.99%, CCN(CC)S(=O)(=O)c1ccc(NC(=O)CN(c2ccccc2)S(=O)(=O)N(C)C)cc1 6.84%, CCOc1ccc(NC(=O)C(Cc2ccccc2)NS(=O)(=O)c2ccc3c(c2)oc(=O)n3C)cc1 (stereo not drawn) -8.39%, COc1ccccc1C(=O)Nc1ccc2nc(SCC(=O)N(C)c3ccccc3)sc2c1 1.91%, CCS(=O)(=O)c1ncc(N(Cc2ccccc2)Cc2ccco2)c(C(=O)Nc2cccc(Cl)c2C)n1 -7.22%, Cc1c(Cl)cccc1-c1ccc(CNCCSc2nnnn2-c2ccccc2)o1 -25.1%, Cc1ccc(C)c(Cn2c3ccccc3c3cnn(CC(=O)NC(C)CCc4ccccc4)c(=O)c32)c1 (stereo not drawn) -10.8%, COc1ccc(CCNC(=O)c2ccc3c(c2)N(Cc2ccccc2)C(=O)c2ccccc2S3=O)cc1OC (stereo not drawn) -29.3%, Cc1ccc(-n2ncc(C(=O)N3CCN(c4cc(Cl)ccc4C)CC3)c2C2CCN(C(=O)OC(C)(C)C)CC2)cc1 8.51%, COc1cccc(NC(=O)CN2C(=O)c3cccc4cccc2c34)c1 -1.04%, Cc1cccc(CNC(=O)Cn2c(-c3cccs3)cc3ccccc32)c1 -12.7%, Cc1cccc(OCC(=O)Nc2ccccc2C(=O)OCc2cc(=O)n3ccsc3n2)c1 0.238%, COc1ccc(NC(=O)c2c(C)oc3ccc(O)c(CN4CCC(C)CC4)c23)cc1Cl -1.88%, COc1ccc(CNc2ncnc3c2nc2n3CCCC2)cc1 -8.78%, COc1ccc(CCn2c3c(c(=O)[nH]c2=O)C(NC(=O)c2ccc(Cl)cc2)(C(F)(F)F)C(=O)N3)cc1OC (stereo not drawn) 10.4%, COC(=O)CSc1ncc2c(n1)-c1ccccc1N(Cc1ccc(Cl)cc1)S2(=O)=O 0.763%, CCCN(c1c(C)n(C)n(-c2ccccc2)c1=O)S(=O)(=O)c1ccc(C)cc1 2.3%, CCc1ccc(-n2nnc(-c3nc(-c4cccs4)no3)c2N)cc1 -4.23%, CC(C)OC(=O)c1ccc(Cn2nnc3sc4c(c3c2=O)CCCC4)cc1 -0.841%, COc1ccc2c(c1)c1c(c(=O)n(-c3ccccc3C)c(=O)n1Cc1cccc(C(F)(F)F)c1)n2C 5.97%, CCN(c1cccc(C)c1)S(=O)(=O)c1cc(Br)cc2c1N(C(C)=O)C(C)C2 (stereo not drawn) -0.615%, CC(NC(=O)c1ccc2c(c1)N(Cc1ccc(Cl)cc1)C(=O)CS2)c1ccccc1 (stereo not drawn) 37.7%, Cc1cn2c(-c3cn[nH]c3)cnc2c(Nc2ccc(C(=O)N3CCNCC3)cc2F)n1 -11.9%, CC(=O)Nc1ccc(S(=O)(=O)NC2(C(F)(F)F)C(=O)Nc3c2c(=O)[nH]c(=O)n3-c2cccc(Cl)c2)cc1 (stereo not drawn) -0.591%, CCc1nc2ccc(C(=O)N3CCN(c4cc(Cl)ccc4C)CC3)cc2nc1CC -8.04%

outcome, inactive:
Cc1ccc2c(c1)c1c(c(=O)n(-c3cccc(Cl)c3)c(=O)n1CC(=O)NCC1CCCO1)n2C (stereo not drawn), Cc1ccccc1OCC(=O)Nc1ccc(-c2nc3ccccc3o2)cc1, CCOc1ccc(NC(=O)CSc2cn(CCNC(=O)c3ccccc3F)c3ccccc23)cc1, COc1ccc(CN2C(=O)C(NC(=O)c3cccc(C)c3)(C(F)(F)F)N=C2c2ccccc2)cc1 (stereo not drawn), CC(C)Oc1ccccc1-c1nc(SCC(=O)c2ccc(F)cc2)n[nH]1, CC1CCN(C(=O)CSc2n[nH]c(-c3ccc(F)cc3)n2)CC1, CCC(=O)N1CCc2cc(CNS(=O)(=O)c3cc(OC)ccc3OC)ccc21, CCOC(=O)c1cnc2cc(C(F)(F)F)ccc2c1Nc1ccc(F)cc1F, Cc1ccc(S(=O)(=O)NCC2CCC(C(=O)NCCc3ccccc3)CC2)cc1 (stereo not drawn)
